This passage reports Kd results from publication PMC2809015 (Biochemistry, 2009).

Bounds are passed on as bounds.

This experiment addresses T1, HscA, Hsp70-class molecular chaperone of the isc operon (E. coli, UniProt P0A6Z1 1-616).
T1 sequence (looked up): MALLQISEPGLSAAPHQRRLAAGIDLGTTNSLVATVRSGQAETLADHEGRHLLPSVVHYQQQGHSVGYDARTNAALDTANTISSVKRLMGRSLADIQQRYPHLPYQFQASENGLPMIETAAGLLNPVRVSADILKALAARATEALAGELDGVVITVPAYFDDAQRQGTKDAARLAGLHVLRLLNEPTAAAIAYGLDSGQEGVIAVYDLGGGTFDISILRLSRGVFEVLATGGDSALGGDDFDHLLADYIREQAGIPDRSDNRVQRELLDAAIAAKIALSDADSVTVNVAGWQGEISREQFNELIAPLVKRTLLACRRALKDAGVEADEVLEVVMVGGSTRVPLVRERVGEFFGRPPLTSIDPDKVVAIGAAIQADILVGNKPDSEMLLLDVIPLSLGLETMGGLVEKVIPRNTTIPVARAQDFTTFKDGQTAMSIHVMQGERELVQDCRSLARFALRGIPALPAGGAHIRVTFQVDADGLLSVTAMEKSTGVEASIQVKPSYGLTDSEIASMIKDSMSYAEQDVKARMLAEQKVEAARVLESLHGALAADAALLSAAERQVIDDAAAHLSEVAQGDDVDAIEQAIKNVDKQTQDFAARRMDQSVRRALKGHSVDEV
Nature of the experiment: molecular weight filtration assay.

B1: E. coli thioredoxin (TrxA) (natural protein)
chain: not shown
For orientation: Kd means the concentration at which binding is half-saturated. Turning to B1, the Kd is not below 500 µM.
